The whole screen tested about 310,000 compounds, of which about 14,000 (4.5%) showed an effect of 50% or more. The effect is printed as a negative number. Some of the results follow.
biological target: human ether-à-go-go-related gene (hERG) potassium channel (human, UniProt Q12809); experiment: primary screen, population patch clamp on CHO cells stably expressing hERG
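Also: peak tail current of the secondary pulse compared with the same well before compound.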

human ether-à-go-go-related gene (hERG) potassium channel, sequence (Q12809 whole entry, looked up): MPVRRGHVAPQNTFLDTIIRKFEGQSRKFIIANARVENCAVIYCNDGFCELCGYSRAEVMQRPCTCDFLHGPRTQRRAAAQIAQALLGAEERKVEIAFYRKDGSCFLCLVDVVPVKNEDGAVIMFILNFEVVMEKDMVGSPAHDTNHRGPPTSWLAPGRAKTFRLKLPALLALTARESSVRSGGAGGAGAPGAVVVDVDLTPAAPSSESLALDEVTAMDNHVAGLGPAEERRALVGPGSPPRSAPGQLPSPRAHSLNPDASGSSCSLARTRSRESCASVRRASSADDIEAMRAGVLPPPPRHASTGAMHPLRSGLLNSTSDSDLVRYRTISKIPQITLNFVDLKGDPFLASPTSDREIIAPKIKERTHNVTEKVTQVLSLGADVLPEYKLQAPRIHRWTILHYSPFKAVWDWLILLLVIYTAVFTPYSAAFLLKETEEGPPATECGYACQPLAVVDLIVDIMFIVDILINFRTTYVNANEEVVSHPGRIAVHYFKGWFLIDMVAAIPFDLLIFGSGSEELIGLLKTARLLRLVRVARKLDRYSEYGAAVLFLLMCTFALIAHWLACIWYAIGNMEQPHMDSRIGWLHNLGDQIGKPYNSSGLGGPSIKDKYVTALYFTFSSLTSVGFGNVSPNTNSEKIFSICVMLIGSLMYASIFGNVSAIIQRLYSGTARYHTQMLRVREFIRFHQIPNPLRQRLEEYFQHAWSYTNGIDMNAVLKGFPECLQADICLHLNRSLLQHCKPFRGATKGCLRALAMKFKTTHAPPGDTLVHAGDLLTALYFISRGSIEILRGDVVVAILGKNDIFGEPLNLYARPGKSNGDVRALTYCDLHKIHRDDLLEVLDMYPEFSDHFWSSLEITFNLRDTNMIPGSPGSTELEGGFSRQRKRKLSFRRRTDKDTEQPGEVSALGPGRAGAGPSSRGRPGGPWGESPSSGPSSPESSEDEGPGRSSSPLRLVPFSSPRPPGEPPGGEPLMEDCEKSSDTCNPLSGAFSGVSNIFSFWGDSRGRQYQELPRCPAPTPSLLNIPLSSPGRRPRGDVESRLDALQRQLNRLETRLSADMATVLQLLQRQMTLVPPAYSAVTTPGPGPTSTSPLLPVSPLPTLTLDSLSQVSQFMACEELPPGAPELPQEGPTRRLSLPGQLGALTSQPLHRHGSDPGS

Row | SMILES | hERG current change (%, negative = inhibition) at 10uM
1 | O=C(Cn1ncc2c([nH]c3ccccc32)c1=O)N1CCN(c2ccccn2)CC1 | 19.5%
2 | COc1ccccc1-c1nnc2sc(-c3cnccn3)nn12 | -7.42%
3 | O=C1C[C@H]2[C@H](CO)[C@@H](OC(=O)c3ccc(-c4ccccc4)cc3)C[C@H]2O1 | -4.68%
4 | COc1ccc(N2CCN(C(=O)CSc3nc4ccccc4c(=O)[nH]3)CC2)cc1 | -10.7%
5 | C=CCN(C)CC/C=C1\c2ccccc2CSc2ccccc21.Cl | -48.8%
6 | Cc1ccc(NCc2nnc3n2CCCCC3)cc1 | 12.8%
7 | FC(F)(F)c1cc(-c2ccccc2)nc(NC2CCCC2)n1 | 10.2%
8 | CCCN(CC(=O)Nc1ccc(C(C)=O)cc1)CC(=O)Nc1ccccc1C | 5.73%
9 | COc1cnn(-c2ccc([N+](=O)[O-])cc2)c(=O)c1Cl | -2.52%
10 | CCOC(=O)N1CCC(N2C(=O)c3cc(C(=O)NC4CCCCC4)ccc3C2O)CC1 (centres unmarked) | -9.82%
11 | O=C(N/N=C/c1ccco1)c1cccc(S(=O)(=O)Nc2ccccc2Cl)c1 | -11.9%
12 | O=C(N/N=C/c1ccc(OC(F)F)cc1)c1cccc(S(=O)(=O)N2CCOCC2)c1 | 7.22%
13 | COc1ccc(CCNC2CC(=O)N(CCc3ccccc3)C2=O)cc1OC (centres unmarked) | 0.286%
14 | Cc1cccc(C)c1NC(=O)CN(C)C(=O)CC1Sc2ccccc2NC1=O (centres unmarked) | 7.95%
15 | O=C(O)c1cccc(Cn2c(Cl)c(/C=N/NC(=O)c3ccc(O)cc3)sc2=O)c1 | 2.09%
16 | COc1cnc(-c2ccccn2)nc1Sc1ccccc1Cl | -9.22%
17 | Cc1ccc(-n2ncc3c(NCc4ccc5c(c4)OCO5)ncnc32)c(C)c1 | -28.9%
18 | O=C1CCCc2[nH]c(-c3ccccc3)nc21 | 13%
19 | O=c1c(/C=N/O)coc2ccc3ccccc3c12 | -5.77%

Row | SMILES | hERG current change (%, negative = inhibition) at 10uM
20 | O=C(CCN1C(=O)S/C(=C/c2ccccc2)C1=O)Nc1ccc(O)c(C(=O)O)c1 | 24.9%
21 | CCOc1ccc(S(=O)(=O)Nc2cccc(C(=O)NCC(c3ccc(OC)cc3)N3CCOCC3)c2)cc1 (centres unmarked) | -1.21%
22 | NC(=O)c1nc(-c2ccccc2)c(-c2ccccc2)[nH]c1=O | -0.448%
23 | O=C(c1ccccc1)c1cnc(-c2ccc(Cl)cc2)s1 | 2.84%
24 | COc1cc(C(C)=O)ccc1OCC(O)CNCC(O)c1ccccc1.O=C(O)C(=O)O (centres unmarked) | 0.805%
25 | CC1CCCCN1Cc1c(O)ccc2c(=O)c(-c3nc4ccccc4s3)coc12 (centres unmarked) | -48%
26 | O=C(CSCc1c(Cl)cccc1Cl)Nc1ccc2c(c1)OCCO2 | -11.4%
27 | COc1cc(OC)c(-c2nc(-c3ccncc3)no2)cc1OC | 6.91%
28 | O=C(O)CC(CC(=O)O)(C(=O)O)c1ccccc1 | 21.1%
29 | O=C(CN1CCN(Cc2ccccc2)CC1)N/N=C/c1ccccc1F | -29.3%
30 | CC(C)Nc1cc(C(C)(C)C)nc2c(-c3ccccc3)cnn12 | 8.72%
31 | CC1(C)CC(CC(=O)NC(=S)Nc2ccc([N+](=O)[O-])cc2)C(=O)O1 (centres unmarked) | -21.2%
32 | Cc1ccccc1CCN1CCCC(CN(C)C(=O)C(=O)c2ccco2)C1 (centres unmarked) | -70.1%
33 | CCN(CC)C(=O)c1cnn(-c2ccccc2)c1NC(=O)c1cccc(F)c1 | 13.3%
34 | Clc1ccc(OCCOCCOc2cccc3cccnc23)c(Br)c1 | 0.0859%
35 | CC(C)CC(NC(=O)C1CCCCC1)C(=O)N1CCC2(CC1)OCCO2 (centres unmarked) | -13.1%
36 | CC(C)(C)N1C(=O)[C@H]2[C@@H](c3ccc(Br)cc3)N3C(=O)N(c4ccc(Br)cc4)C(=O)[C@@]3(Cc3ccccc3)[C@H]2C1=O | 2.33%
37 | C=C(C)CN(Cc1ccccc1)C(=S)Nc1ccccc1 | 18.1%
38 | C/C(=N\NC(=O)CCCNc1ccc(C)cc1)c1ccccn1 | -12.5%

Row | SMILES | hERG current change (%, negative = inhibition) at 10uM
39 | Cc1ccc(S(=O)(=O)CCNC(=O)Cc2ccccc2)cc1 | 26.9%
40 | Cc1ccc(Cn2nnc3c(=O)n(CC(=O)NCc4ccco4)cnc32)cc1 | -4.07%
41 | NC(=O)CC(NC(=O)c1ccc(Br)cc1)c1ccc(N2CCCCCC2)c([N+](=O)[O-])c1 (centres unmarked) | -7.79%
42 | C=C1N2CCC(CC2)C1(O)c1ccc(C)c(C)c1.Cl (centres unmarked) | 9.86%
43 | O=C(CN1C(=O)CCC1=O)NCC12CC3CC(CC(C3)C1)C2 | -4.05%
44 | COC(=O)c1ccc(NS(=O)(=O)c2ccc(OC)cc2)cc1 | -3.31%
45 | CCCCN(C)CCNC(=O)c1cc2c(-c3ccccc3F)nn(C)c2s1 | -48%
46 | N#Cc1nccnc1N1CCN(C(=O)Nc2ccccc2)CC1 | 5.22%
47 | COc1cc(C(=O)Nc2cc(-c3cn4cccnc4n3)ccc2C)cc(OC)c1OC | 1.74%
48 | Cc1ccnc(SC2CC(=O)N(c3ccc(F)cc3)C2=O)n1 (centres unmarked) | 8.46%
49 | CCCSc1cc(NCCOC(C)=O)c([N+](=O)[O-])c2nonc12 | -45.3%
50 | O=[N+]([O-])c1c(Nc2ccccc2O)ccc2nonc12 | 0.726%
51 | O=C(Nc1ccc2c(c1)CCC2)c1cccs1 | 24.7%
52 | CCc1ccccc1NC(=S)N(CCN1CCOCC1)Cc1ccccc1F | 1.86%
53 | Cc1ccc(NC(=O)c2nsc(Cl)c2Cl)cc1 | 5.34%
54 | c1ccc(-c2nccc(-c3ccc(-n4cnc5ccccc54)cc3)n2)cc1 | 9.7%
55 | Cc1ccc(C2C(C#N)=C(N)SC(N)=C2C#N)c(C)c1 | 16.6%
56 | O=C(CSc1n[nH]c(-c2cccs2)n1)N1CCCCC1 | -0.465%

From PMC4336329 (PLoS ONE, 2015)
